For seven cell lines, AUC and IC50 results are on record in the supplement of paper PMC4967469.

A lower IC50 marks a more sensitive line; where the fit passes the top or lowest dose, that dose stands as a limit. For AUC the same curve is integrated over the 256-fold range of doses and scaled to a fraction; values near 1 show little effect. For some of these results: A top dose marked as inferred comes from the curve model; the source does not state it. For some of these results: Where an entry number is given, a second screen of the drug exists; the two often differ.

Holding throughout (assay): Viability of human cancer cell lines after 72 h of drug (GDSC screen)
Compound in one test: Fc1cc(-c2ccnc(Nc3ccc(-n4cnc(N5CCOCC5)n4)cc3)n2)cc(N2CCOCC2)c1 [JNK-9L]
The conditions noted are these: top dose 5.12 µM; top dose inferred. Here is the method: (§1)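 Human cancer cell lines in 384-well plates, medium with 10% serum, drug for 72 h over a 256-fold dose range (nine 2-fold or five 4-fold steps up to the top dose). Adherent lines were fixed and stained with the nucleic acid dye Syto60, suspension lines read with resazurin; signal relative to control wells, capped at 0 and 100%. One two-parameter sigmoid per drug and line, fitted in a mixed model over all curves with the slope shared within a line.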

Compound in a further test: COc1cc(F)c(F)c(Nc2ccc(I)cc2F)c1NS(=O)(=O)C1(C[C@H](O)CO)CC1 [RDEA119]
The conditions noted are these: top dose 5 µM, top dose inferred. The procedure:
as §1

Compound in the next test: OC[C@H](Cc1ccccc1)Nc1nc(Oc2ccc3c(c2)CCC3)nc2c1ncn2Cc1ccc(-c2ccccc2)cc1 [QS11]
The conditions noted are these: top dose 10.24 µM. The procedure: as §1

Compound in the next test: O=c1[nH]cc(F)c(=O)[nH]1 [5-Fluorouracil]
The conditions noted are these: top dose 32 µM; top dose inferred. Here is the method: as §1

Compound in another test: CC(C)(C)c1cc(NC(=O)Nc2ccc(-c3cn4c(n3)sc3cc(OCCN5CCOCC5)ccc34)cc2)no1 [AC220]
The conditions noted are these: top dose 1.024 µM; top dose inferred. The procedure: as §1

Compound in a further test: NCC(=O)Nc1ccc(-n2nc(C(F)(F)F)cc2-c2ccc3c(ccc4ccccc43)c2)cc1 [OSU-03012]
The note with it: top dose 16 µM; top dose inferred. The procedure: as §1

Compound in a further test: C#Cc1cccc(Nc2ncnc3cc(OC)c(OCCCCCCC(=O)NO)cc23)c1 [CUDC-101]
The conditions noted are these: top dose 5.12 µM; top dose inferred. Here is the method:
as §1

Broadly, the IC50 is the point on the concentration scale where inhibition reaches its midpoint. Turning to LC-2-ad (lung adenocarcinoma, adherent), the AUC was found to be 0.44 in the test with JNK-9L; 0.902 with RDEA119 (screen: GDSC drug entry 1014); 0.859 with RDEA119 (screen: GDSC drug entry 1526); 0.857 in the test with QS11; 0.667 with 5-Fluorouracil; 0.972 with AC220. Also, the AUC is 0.512 with OSU-03012 and 0.425 in the test with CUDC-101. In addition, the IC50 is 0.219 µM with JNK-9L; above 5 µM with RDEA119 (screen: GDSC drug entry 1014); 4.3 µM in the test with RDEA119 (screen: GDSC drug entry 1526); 8.64 µM with QS11; 5.93 µM with 5-Fluorouracil; above 1.02 µM with AC220. Besides, the IC50 stood at 1.08 µM in the test with OSU-03012 and 0.198 µM with CUDC-101.
Turning to “LCLC-97TM1 (large cell lung carcinoma, adherent)”, the AUC in the test with JNK-9L was found to be 0.409; in the test with RDEA119 (screen: GDSC drug entry 1014) it was 0.496; with RDEA119 (screen: GDSC drug entry 1526) it was 0.775; with QS11, 0.823; in the test with 5-Fluorouracil, 0.529; in the test with AC220 it was 0.979. The AUC turned out to be 0.646 with OSU-03012 and 0.548 in the test with CUDC-101. Besides, the IC50 was 0.176 µM with JNK-9L; 0.304 µM with RDEA119 (screen: GDSC drug entry 1014); 2.18 µM with RDEA119 (screen: GDSC drug entry 1526); 6.79 µM in the test with QS11; 2.42 µM with 5-Fluorouracil; above 1.02 µM with AC220. Also, the IC50 worked out at 2.64 µM in the test with OSU-03012 and 0.439 µM with CUDC-101.
As for “LCLC-103H (large cell lung carcinoma, adherent)”, the AUC was 0.356 with JNK-9L; 0.986 in the test with RDEA119 (screen: GDSC drug entry 1014); 0.99 with RDEA119 (screen: GDSC drug entry 1526); 0.67 with QS11; 0.817 with 5-Fluorouracil; 0.988 in the test with AC220. In addition, the results for the AUC with OSU-03012 and with CUDC-101 were 0.616 and 0.581, respectively. Moreover, the IC50 is 0.133 µM with JNK-9L; above 5 µM in the test with RDEA119 (screen: GDSC drug entry 1014); above 5 µM with RDEA119 (screen: GDSC drug entry 1526); 1.81 µM with QS11; 15.7 µM in the test with 5-Fluorouracil; above 1.02 µM in the test with AC220. In addition, the IC50 with OSU-03012 was 2.02 µM; with CUDC-101, 0.521 µM.
On to LN-18 (glioma, adherent), for which the AUC came to 0.567 with JNK-9L; 0.911 with RDEA119 (screen: GDSC drug entry 1014); 0.973 in the test with RDEA119 (screen: GDSC drug entry 1526); 0.949 with QS11; 0.991 with 5-Fluorouracil; 0.994 in the test with AC220. Further, the AUC in the test with OSU-03012 worked out at 0.855; with CUDC-101, 0.797. The IC50 with JNK-9L was 0.47 µM; with RDEA119 (screen: GDSC drug entry 1014), 4.73 µM; with RDEA119 (screen: GDSC drug entry 1526), above 5 µM; in the test with QS11, above 10.2 µM; in the test with 5-Fluorouracil it was above 32 µM; with AC220 it was above 1.02 µM. Besides, the figures for the IC50 with OSU-03012 and with CUDC-101 were 9.09 µM and 1.91 µM, respectively.
Regarding LN-229 (glioma, adherent), the AUC with JNK-9L came to 0.767; with RDEA119 (screen: GDSC drug entry 1014) it was 0.809; with RDEA119 (screen: GDSC drug entry 1526), 0.819; in the test with QS11, 0.988; with 5-Fluorouracil, 0.967; with AC220, 0.966. Besides, the values for the AUC in the test with OSU-03012 and with CUDC-101 were 0.845 and 0.684, respectively. Besides, the IC50 with JNK-9L is 1.9 µM; in the test with RDEA119 (screen: GDSC drug entry 1014), 2.6 µM; with RDEA119 (screen: GDSC drug entry 1526), 2.83 µM; with QS11, above 10.2 µM; with 5-Fluorouracil, above 32 µM; in the test with AC220 it was above 1.02 µM. For the same cell line, the IC50 came out at 11.5 µM with OSU-03012 and 1.04 µM with CUDC-101.
On to LN-405 (glioma, adherent), for which the AUC in the test with JNK-9L was 0.633; with RDEA119 (screen: GDSC drug entry 1014), 0.877; with RDEA119 (screen: GDSC drug entry 1526), 0.953; with QS11, 0.979; with 5-Fluorouracil, 0.973; with AC220, 0.968. The AUC with OSU-03012 was found to be 0.869; with CUDC-101, 0.744. Besides, the IC50 with JNK-9L is 0.819 µM; with RDEA119 (screen: GDSC drug entry 1014) it was above 5 µM; with RDEA119 (screen: GDSC drug entry 1526) it was above 5 µM; with QS11, above 10.2 µM; in the test with 5-Fluorouracil, above 32 µM; with AC220 it was above 1.02 µM. In addition, the IC50 with OSU-03012 is above 16 µM; with CUDC-101, 1.96 µM.
On to LNCaP-Clone-FGC (prostate, adherent), for which the AUC was 0.579 in the test with JNK-9L; 0.984 with RDEA119 (screen: GDSC drug entry 1014); 0.979 with RDEA119 (screen: GDSC drug entry 1526); 0.851 with QS11; 0.758 in the test with 5-Fluorouracil; 0.94 in the test with AC220. Besides, the AUC amounted to 0.839 with OSU-03012 and 0.406 in the test with CUDC-101. The IC50 is 0.544 µM in the test with JNK-9L; above 5 µM with RDEA119 (screen: GDSC drug entry 1014); above 5 µM with RDEA119 (screen: GDSC drug entry 1526); 9.57 µM with QS11; 12.6 µM in the test with 5-Fluorouracil; above 1.02 µM with AC220. Further, the IC50 in the test with OSU-03012 turned out to be 13.2 µM; with CUDC-101, 0.17 µM.
